# Measured values from the supplement of paper PMC3334620.
# The full ranking holds about 33,000 sequences; the median of “E-score (-0.5 to 0.5)” is about -0.035, and the highest 2% start at about 0.34. The list shows a part of the results.
# Target: T1, Mot3 (UniProt P54785)
# T1 sequence: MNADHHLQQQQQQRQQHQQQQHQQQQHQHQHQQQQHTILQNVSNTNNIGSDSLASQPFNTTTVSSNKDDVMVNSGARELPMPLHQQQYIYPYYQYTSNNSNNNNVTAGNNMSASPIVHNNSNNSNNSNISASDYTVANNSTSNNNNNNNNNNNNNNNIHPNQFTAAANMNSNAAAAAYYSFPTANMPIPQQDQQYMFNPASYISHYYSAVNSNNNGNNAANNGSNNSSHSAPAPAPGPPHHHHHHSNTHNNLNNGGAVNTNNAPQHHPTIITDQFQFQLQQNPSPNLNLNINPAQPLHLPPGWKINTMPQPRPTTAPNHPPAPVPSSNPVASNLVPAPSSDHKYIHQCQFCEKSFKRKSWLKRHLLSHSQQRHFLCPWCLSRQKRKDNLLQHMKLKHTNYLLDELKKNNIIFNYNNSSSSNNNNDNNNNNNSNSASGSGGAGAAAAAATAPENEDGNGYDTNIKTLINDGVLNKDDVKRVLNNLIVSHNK
# Assay: PBM E-score (8-mer binding enrichment) (E-score (-0.5 to 0.5)); higher = stronger / more preferred TF binding; most listed sequences are background and not binding sites
# Details: protein concentration: 200 nM; construct: GST-full length
# Method: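 Universal 'all 10-mer' protein binding microarrays (Agilent AMADID 015681) probed with GST-tagged S. cerevisiae TFs (full-length or DBD) made by in vitro transcription/translation (PURExpress), about 100-200 nM. Bound TF was detected with fluorescent anti-GST. Each ungapped 8-mer (which stands for itself and its reverse complement) is scored by the PBM enrichment score (E-score), a modified Wilcoxon-Mann-Whitney statistic from -0.5 to +0.5, computed with the Universal PBM Analysis Suite. Scale: above 0.35 generally sequence-specific binding.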
row,Sequence,PBM E-score
1,ATTGGACC,-0.249
2,ATGGAATC,0.00297
3,ACGTGCGA,0.0988
4,CTCACCAA,-0.0942
5,ATCAAGAG,-0.11
6,ATTTGTCC,-0.0253
7,CAGCACCC,-0.27
8,GCTGGCAC,-0.0558
9,GTTCGCGA,0.0261
10,ACTAAGAC,0.0358
11,ACCGAGAC,0.0166
12,AGTTATAC,0.0649
13,CTGTCCCA,-0.151
14,CTCGTCAA,-0.084
15,GAGCCGCC,-0.373
16,GGTCAACC,-0.242
17,CCTCAGCC,-0.248
18,AGATTACA,0.354
19,GCTAAACC,-0.146
20,AGCTTTAA,0.058
21,GAATCGTA,-0.0105
22,GAGAGCAA,-0.137
23,GAGGTGAA,-0.101
24,CCAAAGAG,-0.0937
25,TCGTATAA,0.0312

row,Sequence,PBM E-score
1,AAATAACC,-0.0353
2,AATTTTGG,-0.0957
3,ATACGCCA,0.0272
4,CACGCCCA,0.0185
5,CGGCGGGA,-0.304
6,AAGGAATA,0.0281
7,AGAGGAGG,-0.282
8,CAACCGTG,0.0805
9,CCCACATC,-0.242
10,ACGAGTAC,0.205
11,GCATGTCA,0.26
12,CCCTCCGG,-0.28
13,GGCCGAAC,-0.239
14,GCTTCAAC,-0.0432
15,CGTCGAAA,0.0523
16,GGAGGGTA,-0.199
17,CCCTACAA,0.112
18,ACCACCTC,-0.128
19,TGGCCAAA,-0.0912
20,CAGTTTCC,0.125
21,GATTCGCC,-0.232
22,GATCGTAC,-0.18
23,AAGGTCCG,-0.0866
24,CGCCAGTA,-0.122
25,CTAGCTTC,-0.187

row,Sequence,PBM E-score
1,AACATTTG,0.125
2,ACATCTCT,0.0934
3,AAAACGCG,0.219
4,GGCAAAAA,0.259
5,AGTCGTCA,-0.00648
6,AGTAAGTC,-0.105
7,CCAATCTA,-0.168
8,AATCCCGC,-0.213
9,TACCAACA,0.307
10,TCTGTGCA,0.00117
11,TGGAGAAA,-0.234
12,GCCTGACA,0.109
13,CTATCTAC,0.166
14,CAACCTCG,0.0428
15,CGAATACG,0.0842
16,ACCGGAGC,-0.157
17,CGGCATCC,-0.0227
18,AAGCAGGT,0.0496
19,ACGCCACA,-0.0319
20,ACCTCCCT,-0.118
21,CTTCCCTC,-0.228
22,CTGTAAAC,0.295
23,TAGAGGGA,-0.0707
24,CGTATACC,-0.17
25,GTGTGATA,0.189

row,Sequence,PBM E-score
1,AGGTTTAT,0.0048
2,GTGCAACA,-0.0437
3,TACCCTAA,0.141
4,AGTAGAAA,0.0915
5,CAACTTAA,0.137
6,CCTGTGCG,0.185
7,CGATGTTA,0.313
8,GAAGTAAC,0.0663
9,CGGGGAAA,-0.0452
10,TGCCATAA,-0.112
11,CACTTACC,0.212
12,GTCTGGAA,-0.273
13,GACGTTAC,0.127
14,AAGGAGCG,-0.182
15,GCGACATA,-0.111
16,AGGGTACC,0.0598
17,ACGGATCC,-0.172
18,GATATGCA,-0.0435
19,CAATGTGC,-0.00357
20,ATGATCGA,0.0623
21,AAGATGGC,-0.247
22,AATTCACC,0.07
23,GATATCCC,-0.12
24,AGGCACGG,0.491
25,GCCTACCA,0.174

row,Sequence,PBM E-score
1,CACACCTG,0.0345
2,ATAATGAG,-0.22
3,CTCAGTTC,-0.0107
4,CATGTTGA,0.401
5,GCCGTCTA,-0.266
6,AGATTGAT,-0.055
7,GCATAGTA,0.14
8,AAGACGTG,0.0703
9,TCTTCAAA,-0.0517
10,ATCCCTTA,-0.116
11,ATCTGTCG,-0.0996
12,CCATGCTA,-0.00877
13,GCTAACAA,0.161
14,GGCGTGCA,-0.243
15,AAGTCTTA,0.0422
16,GTAACAAC,0.231
17,AACCAGTA,-0.153
18,CTAACAAA,0.131
19,TACACACA,0.385
20,GTGCATGA,0.0603
21,ACCATAGA,-0.24
22,CTCATCGC,-0.107
23,CGTCGATC,0.0501
24,AAACTGAT,-0.029
25,GAAAATTC,0.00977

row,Sequence,PBM E-score
1,TCCTCGAA,0.00615
2,ACCTCGGC,-0.229
3,ACAGTGCC,0.169
4,GACTTAGC,-0.246
5,ACTTGTAG,0.0499
6,AGACGCAT,-0.0845
7,CCATAAAG,-0.124
8,ATCTTGCC,0.159
9,CACAATCA,0.0206
10,GGATACAC,0.027
11,ATCCGCAC,-0.184
12,CGTTCGCC,-0.0621
13,CAGGGGAA,-0.0748
14,CTAGTTTC,-0.178
15,GAACCGCC,-0.0754
16,TCCCCGGA,-0.199
17,CGTAAGGC,0.256
18,CTGATAAC,0.106
19,ATCTAAAA,-0.0198
20,ACCCGAAT,-0.0891
21,CGCACTCC,-0.223
22,AATTTTTC,0.0527
23,TAATACTA,0.21
24,ACTGACTG,-0.189
25,ACGGAGCC,-0.0964

row,Sequence,PBM E-score
1,AGGCGTAC,0.213
2,CCTAATGC,-0.1
3,AACGGACA,-0.00364
4,GCTCGCTA,-0.109
5,AGTACCAT,-0.0991
6,AGTGAGAA,-0.0879
7,TGGAATAA,-0.0462
8,ATAGGAGG,-0.043
9,ACAACCGA,0.0451
10,CGACCGTC,-0.214
11,ATTATGCC,0.134
12,AGCTACCC,-0.136
13,CAGACATG,0.106
14,ATTGAAGA,-0.0216
15,ATCCTCAC,-0.105
16,AAACCTCG,-0.21
17,ACAGTCCT,-0.155
18,AATTCACT,0.111
19,AGCGCGCG,-0.0457
20,GAGATTAC,0.0745
21,CGCACGGA,-0.207
22,TCGCACCA,-0.0591
